Hit rate of the full screen: of about 91,000 compounds, about 290 (0.32%) were called active. This list was built around the results that the source calls inconclusive (neither active nor inactive); the mix of calls is not that of the screen. The call rests on the fitted dose curve; in most records, active means well fitted inhibition curve with a large enough effect; inconclusive means small, poorly fitted or top-dose-only effect; inactive means no such curve, though single readings can be large or run the other way. Where the call is inconclusive, the potency comes from a doubtful curve fit.
Target: Single-stranded DNA cytosine deaminase (Homo sapiens) (UniProt Q9GZX7)
Assay: Primary qHTS assay for inhibitors of Activation Induced Cytidine Deaminase (AID): AID signal; further: nearly all actives have a fitted effect of over 25% in size
Conditions: AID deamination FRET fluorescence, UDG-coupled, 4 h; activity change, negative = inhibition: at 115 µM (top of the series)
On the % scale 0 is the no-effect control and ±100 the full control effect; potency means the concentration at half of the fitted maximal effect; tags describe the fitted curve by direction and shape.

Chain of UniProt Q9GZX7 (Q9GZX7 whole entry, looked up): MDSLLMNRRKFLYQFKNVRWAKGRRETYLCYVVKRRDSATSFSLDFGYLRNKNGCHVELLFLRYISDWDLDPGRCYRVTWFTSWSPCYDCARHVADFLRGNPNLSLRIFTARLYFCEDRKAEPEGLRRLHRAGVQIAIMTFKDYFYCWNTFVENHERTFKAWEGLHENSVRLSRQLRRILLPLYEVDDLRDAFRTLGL

Compound	Potency	activity change, negative = inhibition
Cc1cccc(N2CCN(C(=O)C3CCCN(C(=O)c4cc5sccc5n4C)C3)CC2)c1C (stereo not given)	inconclusive: 50.1 µM [inhibitor, partial curve, poor fit]	
Cn1nc(C(=O)Nc2ncc(Cc3ccc(Cl)cc3)s2)c2ccccc2c1=O	inconclusive: 25.1 µM [inhibitor, full curve]	
COC(=O)c1ccccc1NC(=O)CN(c1ccc(Cl)cc1)S(=O)(=O)c1ccc(OC)cc1	inconclusive: 100 µM [inhibitor, single point]	
COc1cccc(CNC(=O)c2ccc3c(Cl)c4c(nc3c2)CCCC4)c1	inconclusive: 50.1 µM [inhibitor, partial curve, poor fit]	
Cc1cccc(N(C)C(=O)CS(=O)(=O)c2cccc3nsnc23)c1	inconclusive: 39.8 µM [inhibitor, single point]	
CCC1CCCCN1C(=O)CSc1nc(-c2ccc(OC)cc2)cc(C(F)(F)F)n1 (stereo not given)	inconclusive: 56.2 µM [inhibitor, partial curve, poor fit]	
Cc1ccc(CSc2nc3cccnc3n2Cc2nc(-c3ccccc3F)oc2C)cc1	inconclusive: 10 µM [inhibitor, full curve, poor fit]	
COc1ccc(-c2noc(CSc3nnc(-c4ccncc4)n3-c3ccc(OC)cc3)n2)cc1	inconclusive: 56.2 µM [inhibitor, single point]	
Cc1ccc(Cn2c(Cc3ccccc3)nc3ccccc32)cc1	inconclusive: 50.1 µM [inhibitor, partial curve, poor fit]	
O=C(NCCc1ccc(Cl)cc1)c1ccc2c(c1)N(Cc1ccccc1)C(=O)CS2	inconclusive: 44.7 µM [inhibitor, partial curve, poor fit]	
Cc1ccc(Sc2c(C)nn(-c3ccccc3)c2OC(=O)CC(C)C)cc1	inconclusive: 89.1 µM [inhibitor, single point]	
COc1ccccc1N1CCN(CC(O)COc2cccc3ccccc23)CC1 (stereo not given)	inconclusive: 31.6 µM [inhibitor, partial curve, poor fit]	
O=C(NCCCc1ccccc1)c1ccc2c(c1)sc1nc(-c3ccc(F)cc3)cn12	inconclusive: 12.6 µM [inhibitor, partial curve, poor fit]	
COc1cc(NC(=O)C2CCN(S(=O)(=O)c3c(C)noc3/C=C/c3c(C)cc(C)cc3C)CC2)cc(OC)c1	inconclusive: 12.6 µM [inhibitor, partial curve, poor fit]	
CS(=O)(=O)Cc1ccc(CNCc2ccccc2Cl)cc1		inactive: 2.99%
CCCCN(CC)C(=O)Cn1cc2c(n1)-c1c(oc(C(=O)N3CCCC3)c1C)CC2	inconclusive: 79.4 µM [inhibitor, single point]	
Cc1nc(-c2ccncc2)[nH]c(=O)c1CC(=O)N(C)C(C)C(C)(C)C (stereo not given)		inactive: -5.88%
CCOc1ccc(C2c3[nH]c4ccccc4c3CCN2C(=O)CCC2CCCC2)cc1 (stereo not given)	inconclusive: 50.1 µM [inhibitor, partial curve]	
CCCCN(c1ccccc1)S(=O)(=O)c1cc2c3c(c1)C(C)C(=O)N3CCC2 (stereo not given)	inconclusive: 31.6 µM [inhibitor, partial curve, poor fit]	
CCN1C(=O)c2ccccc2S(=O)c2ccc(C(=O)N3CCN(c4cccc(Cl)c4)CC3)cc21 (stereo not given)	inconclusive: 39.8 µM [inhibitor, partial curve]	

Compound	Potency	activity change, negative = inhibition
COC(=O)c1ccc(C(=O)OC(C)C(=O)C23CC4CC(CC(C4)C2)C3)cc1 (stereo not given)		inactive: -5.4%
Cc1cc(C)cc(-n2nnnc2SCCCn2c(=O)c3c(ncn3C)n(C)c2=O)c1	inconclusive: 100 µM [inhibitor, partial curve, poor fit]	
Cc1cccc(Cn2c(SCc3ccc(C(=O)N4CCC(C)CC4)cc3)nc3ccncc32)c1	inconclusive: 79.4 µM [inhibitor, partial curve, poor fit]	
CC(C)Oc1ccc(CNC(=O)Nc2ccc3c(c2)N(C)C(=O)c2ccccc2S3)cc1	inconclusive: 39.8 µM [inhibitor, partial curve]	
COc1ccccc1NC(=O)CN1C(=O)CC(c2ccc(C)c(C)c2)=Nc2ccccc21	inconclusive: 2.82 µM [inhibitor, full curve, poor fit]	
CCCn1cc(S(=O)(=O)c2ccc(C)cc2)c(=O)c2cc(OC)c(OC)cc21		inactive: -28.7%
Cc1cc2ncn(-c3ccc([N+](=O)[O-])cc3Cl)c2cc1C		inactive: -8.96%
N#Cc1ccc(NCc2ccccc2Cl)cc1		inactive: -18%
Cc1ccc(NC(=O)c2cc(S(=O)(=O)N3CCCc4ccccc43)ccc2F)cc1F		inactive: -26.3%
Cc1ccc(CSc2ccc3nnc(CCNS(=O)(=O)c4ccc(C)cc4)n3n2)cc1	inconclusive: 17.8 µM [inhibitor, full curve, poor fit]	
COc1ccc(-n2cnc3c2NC(=O)CC3c2cccnc2)cc1 (stereo not given)	inconclusive: 79.4 µM [inhibitor, partial curve]	
COc1ccc2c(C)c(CCC(=O)Nc3cccc(C(C)=O)c3)c(=O)oc2c1C		inactive: 1.07%
CCOC(=O)c1c(-c2ccc(C)cc2)csc1NC(=O)c1cc(=O)c2cc(Cl)ccc2o1	inconclusive: 50.1 µM [inhibitor, partial curve, poor fit]	
O=c1c(C(F)(F)F)nc2ccccc2n1CC(O)COCc1ccccc1 (stereo not given)		inactive: 2.05%
CCOC(=O)c1sc(Nc2ccccc2)nc1C(F)(F)F		inactive: -19%
CC(=O)c1ccc(NC(=O)CCCc2nc(-c3cccc(C)c3)no2)cc1	inconclusive: 79.4 µM [inhibitor, partial curve]	
Cc1cc(C)cc(NC(=O)c2cnn3c2NC(C(=O)O)=CC3/C=C/c2ccccc2)c1 (stereo not given)	inconclusive: 56.2 µM [inhibitor, partial curve, poor fit]	
COc1cc(C(=O)Nc2cccc(Cl)c2N2CCCC2)cc(OC)c1OC	inconclusive: 31.6 µM [inhibitor, partial curve]	
Cc1cc(/C=C(\C#N)c2nc3ccccc3[nH]2)cc2c1OC(C)C2 (stereo not given)		inactive: -6.25%
OCCNc1nc(Nc2cccc(Cl)c2)nc2nccnc12	active: 79.4 µM	

— PubChem BioAssay AID1347428 (National Center for Advancing Translational Sciences (NCATS), 2020)
